Holding throughout (assay): two-hybrid; S. cerevisiae AH109 co-transformed with pGBKT7-ARF (bait) and pGADT7-Aux/IAA (prey); growth on SD/-Ade-His-Leu-Trp against SD/-Leu/-Trp; at least 10 independent colonies; serial dilutions for strength
Assay [1] concerns the target T1, ARF12 (Arabidopsis thaliana) (UniProt Q9XID4).
T1 sequence: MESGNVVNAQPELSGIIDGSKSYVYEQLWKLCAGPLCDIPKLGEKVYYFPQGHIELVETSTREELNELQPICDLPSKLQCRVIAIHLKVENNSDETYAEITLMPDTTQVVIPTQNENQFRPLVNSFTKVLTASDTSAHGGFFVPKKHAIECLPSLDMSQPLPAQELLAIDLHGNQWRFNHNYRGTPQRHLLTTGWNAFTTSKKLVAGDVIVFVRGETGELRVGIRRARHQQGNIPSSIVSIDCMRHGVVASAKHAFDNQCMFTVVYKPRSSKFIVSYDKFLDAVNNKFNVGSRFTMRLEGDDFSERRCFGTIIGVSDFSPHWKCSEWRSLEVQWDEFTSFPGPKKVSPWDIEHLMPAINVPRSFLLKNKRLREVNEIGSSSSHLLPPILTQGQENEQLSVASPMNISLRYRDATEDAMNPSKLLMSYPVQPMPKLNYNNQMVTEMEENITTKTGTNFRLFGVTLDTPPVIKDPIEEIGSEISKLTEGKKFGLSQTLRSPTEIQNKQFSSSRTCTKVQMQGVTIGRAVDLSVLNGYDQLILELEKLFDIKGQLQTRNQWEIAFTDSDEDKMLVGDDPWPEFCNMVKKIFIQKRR

The chains behind the UniProt entries cited, without tags or fusion partners.
UniProt Q38832: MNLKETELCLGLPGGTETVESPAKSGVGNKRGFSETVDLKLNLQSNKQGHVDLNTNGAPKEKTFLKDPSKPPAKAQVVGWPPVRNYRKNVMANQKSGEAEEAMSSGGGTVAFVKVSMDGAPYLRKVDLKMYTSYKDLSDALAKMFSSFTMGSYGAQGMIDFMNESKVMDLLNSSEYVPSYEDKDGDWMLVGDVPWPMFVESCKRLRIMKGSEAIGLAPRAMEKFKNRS
UniProt Q38825: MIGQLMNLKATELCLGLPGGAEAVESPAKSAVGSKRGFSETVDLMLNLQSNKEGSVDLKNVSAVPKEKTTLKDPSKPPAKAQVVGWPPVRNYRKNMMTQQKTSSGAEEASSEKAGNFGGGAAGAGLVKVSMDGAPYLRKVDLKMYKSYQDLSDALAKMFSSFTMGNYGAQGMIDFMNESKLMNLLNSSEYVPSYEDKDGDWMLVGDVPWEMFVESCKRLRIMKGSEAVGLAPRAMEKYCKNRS
UniProt P93830: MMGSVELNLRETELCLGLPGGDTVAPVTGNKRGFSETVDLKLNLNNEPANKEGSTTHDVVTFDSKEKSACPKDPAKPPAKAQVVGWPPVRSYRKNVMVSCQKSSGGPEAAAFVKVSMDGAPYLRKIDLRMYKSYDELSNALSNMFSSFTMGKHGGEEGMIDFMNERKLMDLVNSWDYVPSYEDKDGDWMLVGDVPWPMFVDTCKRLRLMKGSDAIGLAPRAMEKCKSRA

In assay [2] the target is T2, ARF3 (Arabidopsis thaliana) (UniProt O23661).
T2 sequence: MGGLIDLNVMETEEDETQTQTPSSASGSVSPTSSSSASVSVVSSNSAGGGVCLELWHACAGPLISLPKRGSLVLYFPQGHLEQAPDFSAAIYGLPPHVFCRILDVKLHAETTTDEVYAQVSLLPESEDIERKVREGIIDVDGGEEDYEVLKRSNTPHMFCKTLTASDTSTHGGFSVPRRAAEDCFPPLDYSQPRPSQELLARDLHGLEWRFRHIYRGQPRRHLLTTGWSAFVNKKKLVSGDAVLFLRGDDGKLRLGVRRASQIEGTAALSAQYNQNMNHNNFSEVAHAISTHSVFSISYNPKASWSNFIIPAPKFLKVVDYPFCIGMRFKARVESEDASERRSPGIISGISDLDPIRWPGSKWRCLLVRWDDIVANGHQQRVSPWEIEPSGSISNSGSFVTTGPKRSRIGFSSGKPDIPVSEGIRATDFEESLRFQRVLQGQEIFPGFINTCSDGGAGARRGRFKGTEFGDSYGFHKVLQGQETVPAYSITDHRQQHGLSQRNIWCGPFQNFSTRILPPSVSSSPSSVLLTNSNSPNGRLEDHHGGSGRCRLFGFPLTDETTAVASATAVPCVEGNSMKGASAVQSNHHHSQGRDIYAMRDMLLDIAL

Assay [3] deals with T3, ARF4 (Arabidopsis thaliana) (UniProt Q9ZTX9).
T3 sequence: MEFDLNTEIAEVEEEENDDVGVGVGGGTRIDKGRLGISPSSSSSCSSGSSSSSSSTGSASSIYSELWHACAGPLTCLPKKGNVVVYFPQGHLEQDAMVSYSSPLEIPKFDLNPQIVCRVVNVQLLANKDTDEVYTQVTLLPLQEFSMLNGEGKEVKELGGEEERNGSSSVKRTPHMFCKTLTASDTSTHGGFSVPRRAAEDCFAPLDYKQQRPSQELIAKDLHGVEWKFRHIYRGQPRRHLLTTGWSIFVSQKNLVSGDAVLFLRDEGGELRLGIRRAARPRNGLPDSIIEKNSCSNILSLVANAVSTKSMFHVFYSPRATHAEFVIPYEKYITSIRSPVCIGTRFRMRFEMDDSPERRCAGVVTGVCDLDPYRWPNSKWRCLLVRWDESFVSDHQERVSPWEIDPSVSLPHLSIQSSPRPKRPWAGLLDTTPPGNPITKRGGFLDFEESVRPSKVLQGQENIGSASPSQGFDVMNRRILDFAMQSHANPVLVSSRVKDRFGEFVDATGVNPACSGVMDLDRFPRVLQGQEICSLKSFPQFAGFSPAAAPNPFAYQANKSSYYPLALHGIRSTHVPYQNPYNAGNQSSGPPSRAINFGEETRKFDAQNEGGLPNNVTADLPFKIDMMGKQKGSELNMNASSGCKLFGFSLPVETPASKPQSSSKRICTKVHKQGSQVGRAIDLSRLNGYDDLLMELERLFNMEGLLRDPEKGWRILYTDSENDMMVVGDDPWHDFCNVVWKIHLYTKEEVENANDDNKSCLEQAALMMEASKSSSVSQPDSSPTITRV

Results are given in words; binding and its absence hold for the method and conditions named. Some binding calls cover weakened binding; strength is not graded here.

As to Aux/IAA14 (from UniProt Q38832 1-228), the binding entry in assay [1] is “no binding”; in assay [2], “no binding”; in assay [3], “binds”.
For Aux/IAA7 (from UniProt Q38825 1-243), the values for the binding result in assay [1], in assay [2] and in assay [3] were “no binding”, “no binding” and “binds”, respectively.
For the substance Aux/IAA17 (from UniProt P93830 1-229), the binding result is listed as “no binding” in assay [1], “no binding” in assay [2] and “binds” in assay [3].

These data come from article PMC4274898.
